Results reported in PubChem BioAssay AID686979 (National Center for Advancing Translational Sciences (NCATS), 2013).
“And” between values parts separate entries of the source, which are not always exact repeats. Equal entries are not always repeated. Hit rate of the full screen: of about 420,000 compounds, about 50,000 (12%) were called active. The inconclusive results got no clear call from the source; some entries with a clear call stand among them for comparison. Calls follow the shape of the dose curve; as a rule, active = well fitted inhibition curve with a large enough effect; inconclusive = small, poorly fitted or top-dose-only effect; inactive = flat fitted curve, though single readings scatter. Potencies of inconclusive entries are doubtful fits and often do not repeat.
% is scaled to controls: 0 for no effect and ±100 for the full control effect; potency is read from the fitted curve at half-maximal effect; tags tell the direction and shape of the fitted curve.

Assay: qHTS for Inhibitors of human tyrosyl-DNA phosphodiesterase 1 (TDP1): qHTS in cells in presence of CPT; also: nearly all actives have a fitted effect of over 55% in size
Details: chicken DT40 Tdp1-/-;hTDP1 cells + 20 nM CPT, ATP luminescence, 48 h; activity change, negative = growth inhibition: at 46.2 µM (top of the series) unless noted
Summary of the method: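 Chicken DT40 Tdp1-/- cells complemented with human TDP1, 400 cells/well, exposed to compounds plus 20 nM camptothecin for at least 48 h at 37 C; viability read as ATP content by CellTiter-Glo luminescence.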
With `O=C(NCc1ccco1)c1cc(-c2ccccc2)on1` the “activity change, negative = growth inhibition” value was inactive: -27.1%.
For `O=C(Nc1ccc(S(=O)(=O)Nc2cnc3ccccc3n2)cc1)c1cccc(OC(F)F)c1`, the “activity change, negative = growth inhibition” value was inactive: -18.5%.
With `CCn1c(C(=O)N2CCC(C(=O)NCc3ccc(OC)cc3)CC2)cc2sccc21` the Potency was inconclusive: 29.1 µM [inhibitor, single point].
For `CC(=O)Nc1ccc(-c2ccnc3c2CC(C)(C(=O)Nc2cccc(C(C)=O)c2)O3)cc1` (stereo not drawn), the Potency was inconclusive: 16.4 µM [inhibitor, single point].
With `O=C(CSc1nnc(SCc2ccccc2)s1)N/N=C/C=C/c1ccccc1[N+](=O)[O-]` the Potency was inconclusive: 29.1 µM [inhibitor, single point].
With `COc1ccccc1CNC(=O)C1CCC(=O)N(CCCc2ccccc2)C1` (stereo not drawn) the Potency was inconclusive: 23.1 µM [inhibitor, single point].
For `CN1CCN(Cc2c(O)ccc3cc(-c4ccccc4)c(=O)oc23)CC1`, the Potency was inconclusive: 29.1 µM [inhibitor, single point].
With `CCOC(=O)c1ccc(Oc2nc(NC)nc(Nc3ccccc3)n2)cc1` the Potency was inconclusive: 25.9 µM [inhibitor, single point].
With `CCOC(=O)c1cccc(NC(=O)c2cc3c(=O)n(Cc4cccnc4)ccc3nc2C)c1` the Potency was inconclusive: 29.1 µM [inhibitor, single point].
In the case of `CCOC(=O)N1CCN(C(=O)c2ccc3nc4ccsc4c(=O)n3c2)CC1`, the “activity change, negative = growth inhibition” value is reported as inactive: 0.811%.
For `O=C(CCC(=O)N1CCOc2ccccc21)N1CCCCC1`, the Potency was inconclusive: 5.8 µM [inhibitor, full curve, poor fit].
For `COc1ccc(NC(=O)c2cc(S(=O)(=O)N3CCc4ccccc43)cn2C)cc1`, the Potency was active: 10.3 µM.
In the case of `C[C@H]1COC(=O)[C@@H](Cc2ccc(F)cc2)CC/C=C\C[C@H](CC(=O)NCCO)C(=O)N1`, the Potency is reported as inconclusive: 6.51 µM [inhibitor, partial curve].
With `Cc1cccc(-c2nc(N3CCN(c4ccc(F)cc4)CC3)c3ccccc3n2)c1` the Potency was inconclusive: 2.91 µM [inhibitor, single point].
For `CN1C(=O)C(C(=O)Nc2ccccc2F)c2ccccc21` (stereo not drawn), the Potency was inconclusive: 20.6 µM [inhibitor, single point].
For `COc1ccc(S(=O)(=O)CCC(=O)NCc2ccc(C)o2)cc1`, the activity change, negative = growth inhibition was inconclusive: -30.2% [inhibitor].
For `CC(=O)Oc1ccc(N2C(=O)C3C4C=CC(CO)(O4)C3C2=O)cc1` (stereo not drawn), the Potency was active: 2.59 µM.
For `COC(=O)C1=C(C)NC(=O)/C1=C\c1cc(C)n(-c2cccc(C)c2)c1C`, the Potency was inconclusive: 20.6 µM [inhibitor, single point].
For `O=C(COc1ccccc1F)Nc1ccc2c(c1)OCCO2`, the “activity change, negative = growth inhibition” value was inactive: 3.54%.
With `COCCN(C(=O)Cc1cccs1)C(C(=O)NCc1ccc(OC)cc1)c1ccc(C)cc1` (stereo not drawn) the Potency was inconclusive: 25.9 µM [inhibitor, single point].
With `Cc1ccc(-n2nc3ccc(NC(=O)/C=C/c4ccco4)cc3n2)cc1` the Potency was active: 20.6 µM.
In the case of `COc1ccc(C2=NS(=O)(=O)N(C)C(C(=O)NC3CCCC3)=C2)cc1OC`, the Potency is reported as inconclusive: 23.1 µM [inhibitor, single point].
For `Cc1ccc2nc(N3CCN(C(=O)c4ccco4)CC3)c3nncn3c2c1`, the Potency was inconclusive: 25.9 µM [inhibitor, single point].
With `CCCCCn1c(=O)[nH]c2cc(C(=O)N3CCN(c4ccccc4F)CC3)ccc2c1=O` the Potency was inconclusive: 10.3 µM [inhibitor, partial curve] and inconclusive: 29.1 µM [inhibitor, single point].
With `CCc1ccc(CN(C)C(=O)c2cc(COc3c(F)cccc3F)on2)cc1` the Potency was active: 23.1 µM.
For `COc1ccc(Cl)cc1-c1nc(-c2ccc(NC(=O)c3ccncc3)cc2)no1`, the Potency was inconclusive: 11.6 µM [inhibitor, partial curve, poor fit].
For `CC(=O)Nc1nnc(CSCc2ccccc2F)s1`, the “activity change, negative = growth inhibition” value was inactive: -22.2%.
For `O=C(CS(=O)(=O)c1ccccc1)Nc1nnc(-c2cccs2)o1`, the “activity change, negative = growth inhibition” value was inactive: -14.9%.
For `OC(COC(c1ccccc1)c1ccccc1)CN1CCN(c2cccc(Cl)c2)CC1` (stereo not drawn), the Potency was active: 20.6 µM.
In the case of `Cc1cnc(SCc2ccc(Cl)cc2Cl)[nH]c1=O`, the Potency is reported as inconclusive: 29.1 µM [inhibitor, single point].
With `CC(C)(C)c1ccc(C(=O)N/N=C/c2ccccn2)cc1` the Potency was active: 9.2 µM.
In the case of `COc1ccc(CCNC(=O)CSc2nnc(CNc3ccc(Cl)cc3)o2)cc1OC`, the Potency is reported as inconclusive: 18.4 µM [inhibitor, partial curve].
With `COc1ccccc1CCC(=O)Nc1ccc2c(c1)c(=O)n(C)n2C` the Potency was inconclusive: 23.1 µM [inhibitor, partial curve, poor fit].
With `CC(C)[C@H](NC(=O)c1ccccc1F)C(=O)NNC(=O)c1cccs1` the “activity change, negative = growth inhibition” value was inactive: -6.35%.
In the case of `COc1cc2c(cc1NC(=O)CSc1ccccc1)oc1ccccc12`, the Potency is reported as inconclusive: 16.4 µM [inhibitor, single point].
For `O=C1[C@H]2[C@@H](c3ccc(Cl)cc3)N3C(=O)N(c4cccc(Cl)c4)C(=O)[C@@]3(Cc3ccc(Cl)cc3)[C@H]2C(=O)N1C1CCCCC1`, the Potency was inconclusive: 16.4 µM [inhibitor, single point].
With `CC(C)c1ccccc1NC(=S)NCc1ccncc1` the “activity change, negative = growth inhibition” value was inactive: -3%.
For `CCN(C[C@H]1N[C@@](Cc2ccccc2)(C(=O)OC)[C@H]2C(=O)N(Cc3ccccc3)C(=O)[C@@H]12)C(=O)Nc1ccc(F)cc1`, the Potency was inconclusive: 29.1 µM [inhibitor, single point].
In the case of `N#Cc1cnn2c1nc(N1CCOCC1)c1ccccc12`, the Potency is reported as inconclusive: 20.6 µM [inhibitor, single point].
In the case of `CSc1ccc(-c2nc(CSCC(=O)NCCCN3CCCC3=O)c(C)o2)cc1`, the “activity change, negative = growth inhibition” value is reported as inactive: -25.5%.
In the case of `Cc1ccc(-c2nc3ccccc3[nH]2)cc1N`, the Potency is reported as inconclusive: 16.4 µM [inhibitor, single point].
With `C=CCN1C(=O)c2ccccc2Sc2ccc(C(=O)N3CCN(C)CC3)cc21` the Potency was inconclusive: 18.4 µM [inhibitor, single point].
For `O=C(CNC(=O)c1ccc(S(=O)(=O)N2CCCC2)cc1)N/N=C/c1ccc(Cl)cc1`, the Potency was inconclusive: 25.9 µM [inhibitor, partial curve, poor fit].
